Measurements: US20220387487A1, “COMPOSITIONS AND METHODS FOR TREATMENT OF CANCER” (Aleta Biotherapeutics Inc., priority 2019, published 2022)

Legend:
CLEC12A Q form = biological target: T1, CLEC12A Q form (Homo sapiens, UniProt Q5QGZ9, K244Q); assay: Flow cytometry binding to HEK-293T cells transfected with CLEC12A amino acid 254 Q version; conditions: FIG. 19
T1 construct: transfected with full-length CLEC12A (UniProt Q5QGZ9-1) cDNAs; expressed in transfected cells; host or cells: HEK-293T
T1 sequence (Q5QGZ9 1-275 isoform Q5QGZ9-1 K254Q): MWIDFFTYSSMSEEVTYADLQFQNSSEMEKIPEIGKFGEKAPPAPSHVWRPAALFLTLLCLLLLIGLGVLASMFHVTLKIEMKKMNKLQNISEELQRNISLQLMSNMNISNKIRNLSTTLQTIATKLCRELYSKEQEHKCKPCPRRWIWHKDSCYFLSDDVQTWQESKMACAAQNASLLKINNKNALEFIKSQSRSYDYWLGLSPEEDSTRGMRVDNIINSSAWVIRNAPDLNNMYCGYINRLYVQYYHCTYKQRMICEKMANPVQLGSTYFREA
Description: (§1) Given the unique binding properties of VHH clone 2H3 relative to the anti-CLEC12A scFv we tested the binding properties of a biparatopic fusion protein containing both the VHH clone 2H3 and an anti-CLEC12A scFv. HEK-293T cells were transfected with full-length CLEC12A (UniProt Q5QGZ9-1) cDNAs expressing the amino acid 254 “K” version of CLEC12A (GenScript) or a version with “Q” at this position generated by mutagenesis. The cells were removed with Accutase and washed with PBS, suspended in 50 μL FACS buffer (FB, PBS+1% BSA and 0.1% sodium azide) and blocked with human Fc block (Becton Dickinson) at room temperature for 10 minutes. Then, 50 μl of the purified fusion proteins #186, #330 or #357 diluted in FACS buffer (starting at 3 μg/ml with 3 fold dilutions) were added. The cell/fusion protein mixture was incubated for 30 minutes at 4° C. and then washed twice with FACS buffer. The cells were suspended in 100 μl of FACS buffer, stained with HIB19-PE (BioLegend […]), and incubated for 30 minutes at 4° C. The cells were washed twice with FACS buffer, fixed with a final concentration of 1% PFA in PBS (Thermo Scientific) and then analyzed by flow cytometry.

[1] = tested on: CLL-1 positive U937 cells; assay: Flow cytometry binding of fusion proteins to U937 cells (FMC63-PE detection); set-up: species or system human; conditions: purified fusion proteins, FIG. 14
Description: The ability of an expressed biparatopic construct comprising the fusion protein containing a CD19 variant, an anti-CLL-1 scFv, and an anti-CLL-1 VHH (#357) to bind CLL-1 positive U937 cells was evaluated relative to the binding of an expressed construct containing a fusion protein comprised of a CD19 variant and an anti-CLL-1 VHH (#330) and an expressed construct containing a fusion protein comprised of a wild type CD19 and an anti-CLL-1 scFv (#186). […] Approximately 5×10^5 cells were aliquoted per sample. The cells were spun, washed with FB, and then suspended in 100 μl of the biparatopic or monospecific fusion protein dilution (supernatant or purified starting at 10 μg/ml) in FB. The cell/fusion protein mixture was incubated for 30 minutes at 4° C. and then washed 2× with FB. […] After washing 2× with FB, the cells were fixed with a final concentration of 1% PFA in PBS (Thermo Scientific) and then analyzed by flow cytometry (Accuri C6, Becton-Dickinson).
To further confirm the binding and cytotoxicity capabilities of an expressed biparatopic fusion protein comprising a CD19 variant, an anti-CLL-1 scFv, and an anti-CLL-1 VHH, a construct was generated with the same features as construct #357 but lacking the HIS tag. […] The cells were washed twice with FACS buffer, fixed with a final concentration of 1% PFA in PBS (Thermo Scientific) and then analyzed by flow cytometry. […]

CLEC12A K form = biological target: T2, CLEC12A K form (Homo sapiens, UniProt Q5QGZ9); assay: Flow cytometry binding to HEK-293T cells transfected with CLEC12A amino acid 254 K version; conditions: FIG. 19
T2 construct: transfected with full-length CLEC12A (UniProt Q5QGZ9-1) cDNAs; host or cells: HEK-293T
T2 sequence (Q5QGZ9 1-275 isoform Q5QGZ9-1): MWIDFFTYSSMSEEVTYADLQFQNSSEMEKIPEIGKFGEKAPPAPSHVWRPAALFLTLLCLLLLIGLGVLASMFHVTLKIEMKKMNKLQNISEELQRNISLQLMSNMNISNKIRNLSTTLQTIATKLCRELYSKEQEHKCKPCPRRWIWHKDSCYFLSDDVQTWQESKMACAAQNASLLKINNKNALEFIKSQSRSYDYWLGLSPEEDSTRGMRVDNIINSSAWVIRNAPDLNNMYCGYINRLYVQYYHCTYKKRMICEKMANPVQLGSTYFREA
Description: as §1

CLEC12A = assay: ELISA binding of fusion proteins (FMC63 coat, HRP-anti-His detection); set-up: species or system human; conditions: purified fusion protein, Table 8
Description: The binding of the biparatopic fusion proteins to CLEC12A was also examined by ELISA. […] The plate was left to incubate overnight at 4° C. The coated plate was blocked with TBS/0.3% nonfat dry milk (NFD) for 60 minutes at RT.

U937 cells = assay: CAR-CD19 T cell cytotoxicity bridged by purified fusion protein, luciferase U937 cells; format: cell-based; conditions: E:T 10:1, 48 hours, FIG. 16C
Description: Several fusion proteins were purified and evaluated for their ability to bridge killing of CLL-1 expressing cells by CAR-T cells that target CD19. Luciferase was introduced to U937 cells and […] by lentiviral transduction. On day 1 U937 cells were seeded at 1×10^4 per well of a round-bottom 96 well plate (Thermo Fisher) or 293T-CLL-1 cells were seeded in a flat bottom plate in cell culture media (RPMI 1640, 10% FBS). On day 2, the fusion proteins #357, #330 and #321 were added at 0.2 μg/ml (20 ng/well) with serial 3 fold dilutions where indicated, then left to incubate at 37° C. for 1 hour using the cell culture incubator. […]
On day 3, the plate was spun at 550 RCF for 5 minutes and rinsed with PBS then spun again to remove the PBS. […] The injector added 100 μl of Luciferase assay reagent per well, then the well was read immediately. The plate was then advanced to the next well for a repeat of the inject-then-read process. […]
The % cell death (aka cytotoxicity) was calculated as follows:
% killing=[1−luc reading (experimental wells)/luc reading (tumor cells without CAR T cells)]×100. […]
To test cytoxicity, luciferase labeled Molm14 or U937 cells were targeted for cytotoxic killing using a CAR19 T cell preparation and the purified proteins #330, #410 and #440 added in a dose titration. […] The plates were read in a luminometer with an injector (Glomax Multi Detection System, Promega). […]

[2] = tested on: CLEC12A-positive cell line AML5; assay: Flow cytometry binding of fusion proteins to OCI-AML-5 cells; set-up: species or system human; conditions: FIG. 16A
Description: To further confirm the binding and cytotoxicity capabilities of an expressed biparatopic fusion protein comprising a CD19 variant, an anti-CLL-1 scFv, and an anti-CLL-1 VHH, a construct was generated with the same features as construct #357 but lacking the HIS tag. U937 (ATCC) and OCI-AML-5 (DSMZ) cells were cultured as detailed by the supplier. The cells were washed with PBS, suspended in 50 μl FACS buffer (PBS+1% BSA and 0.1% sodium azide) and blocked with human Fc block (Becton Dickinson) at room temperature for 10 minutes. Then, 50 μl of the fusion protein, #357 or #518, starting at 1 μg/ml with 3 fold dilutions in FACS buffer was added. The cell/fusion protein mixture was incubated for 30 minutes at 4° C. and then washed twice with FACS buffer. The cells were suspended in 100 μl of FACS buffer, stained with FMC63-PE (Millipore 5 l/test), and incubated for 30 minutes at 4° C. The cells were washed twice with FACS buffer, fixed with a final concentration of 1% PFA in PBS (Thermo Scientific) and then analyzed by flow cytometry.

B1: #357: biparatopic fusion protein containing a CD19 variant, an anti-CLL-1 scFv, and an anti-CLL-1 VHH; SEQ ID NO:307 (protein)
chain: MEFGLSWVFLVALFRGVQCDMAQVQLQESGPGLVKPSETLSLTCVVSGGSISSSNWWSWVRQPPGKGLEWIGEIYHSGSPDYNPSLKSRVTISVDKSRNQFSLKLSSVTAADTAVYYCAKVSTGGFFDYWGQGTLVTVSSGGGGSGGGGSGGGGSEIELTQSPSSLSASVGDRVTIT[about 80 residues left out]FGPGTKVEIKRTGGGGSGGGGSGGGGSGGGGSQVQLQESGGGLVQAGGSLRLSCVASGSIRSINVMGWYRQAPGKQRELVAACASDGNTYYADSVKGRFTISRDNAEKTVYLQMNNLKPDDTAVYYCDANSRGNYYSGQGTQVTVSSTSGPGGQGAGGGGSGGGGSGGGGSGGGGSPEEPLVVKVEEGDTAALWCLKGTSDGPTQQLTWSRESPLKPFLKYSLGVPGLGVHVRPDAISVVIRNVSQQMGGFYLCQPGPPSEKAWQPGWTVNVEGSGELFRWNVSDLGGLGCGLKNRSSEGPSSPSGKLMSPKLYVWAKDRPEIWEGEPPCLPPRDSLNQSLSRDLTVAPGSTLWLSCGVPPDSVSRGPLSWTHVHPKGPKSLLSLELKDDRPARDMWVMGTSLMLPRATAQDAGKWYCHRGNLTMSFHLEITARPSRHHHHHH
binding to the Q form of CLEC12A (CLEC12A Q form): binds very well
binding to U937 cells, comparison [1]: binds better than the fusion protein comprising an anti-CLL-1 VHH
binding to the K form of CLEC12A (CLEC12A K form): binds very well
EC50 (CLEC12A): 0.01 nM
bridging of CAR-CD19 T cells to U937 target cells, cytotoxicity (U937 cells): potent cytotoxicity
binding by FACS on AML5, HIS-tagged versus no HIS-tag [2]: equivalent binding
